Experimental data: the supplement of paper PMC9446081
Hit rate of the full screen: of about 39,000 compounds, about 220 (0.56%) showed activity. Some of the results follow.

The compounds below were run on Escherichia coli K-12 BW25113 (assay: relative growth (OD600 normalised to plate interquartile mean) (fraction); higher = less growth inhibition, active = 0.2 or less). Conditions: 50 µM; LB; incubation time: overnight (16-24 h).
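Also: static incubation at 37 °C against the wild-type strain, values averaged over two biological replicates.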

Row | SMILES | relative growth
1 | Fc1ccc(CSc2nc3ccccc3[nH]2)c2ccccc12 | inactive: 0.951
2 | C[C@H](CO)N1C[C@H](C)[C@H](CN(C)S(=O)(=O)c2cn(C)cn2)Oc2ccc(NC(=O)Cc3ccccc3)cc2C1=O | inactive: 0.968
3 | C[C@@H]1CN([C@@H](C)CO)C(=O)Cc2cc(NC(=O)Nc3ccc(F)cc3)ccc2O[C@H]1CN(C)CC1CCCCC1 | inactive: 0.977
4 | CN1CCN(C(=O)C[C@@H]2CC[C@@H]3[C@H](COC[C@@H](O)CN3S(=O)(=O)c3cccc(Cl)c3)O2)CC1 | inactive: 1.03
5 | CO[C@H]1CN(C)C(=O)c2cc(NC(=O)c3ccc(F)cc3)ccc2OC[C@@H](C)N(C(=O)CN(C)C)C[C@H]1C | inactive: 0.996
6 | C[C@@H]1CN([C@H](C)CO)C(=O)c2cccc(NC(=O)Nc3ccc(C(F)(F)F)cc3)c2O[C@@H]1CN(C)Cc1ccc(C(F)(F)F)cc1 | inactive: 1.05
7 | O=c1ccn([C@@H]2O[C@H](CO)[C@@H](O)[C@H]2O)c(=O)[nH]1 | inactive: 1
8 | C[C@@H]1CCCCO[C@@H](CN(C)S(=O)(=O)c2ccccc2)[C@H](C)CN([C@@H](C)CO)C(=O)c2cc(NS(C)(=O)=O)ccc2O1 | inactive: 0.894
9 | CC[C@@H](C)N1C(=O)CC[C@H]1C(=O)O | inactive: 1.01
10 | C[C@@H]1CN([C@@H](C)CO)C(=O)c2cc(NS(=O)(=O)c3ccc(F)cc3)ccc2O[C@H]1CN(C)Cc1ccncc1 | inactive: 1.04
11 | CCOC(=O)c1cc2c(c(-c3cccc(Br)c3)n1)[C@@H](CCO[Si](C)(C)C(C)(C)C)N(S(=O)(=O)C(C)(C)C)C2 | inactive: 1.05
12 | C[C@@H]1CN([C@@H](C)CO)C(=O)c2cc(NS(=O)(=O)c3cccs3)ccc2O[C@@H](C)CCCCO[C@@H]1CN(C)C(=O)NC1CCCCC1 | inactive: 0.985
13 | Cc1ccc(S(=O)(=O)Nc2ccc3c(c2)C(=O)N([C@@H](C)CO)C[C@@H](C)[C@@H](CN(C)Cc2ccc(C(=O)O)cc2)OCCCC[C@H](C)O3)cc1 | inactive: 0.993
14 | C[C@@H]1CN([C@@H](C)CO)C(=O)c2cccc(NC(=O)C3CC3)c2O[C@@H]1CN(C)Cc1ccc(C(=O)O)cc1 | inactive: 0.992
15 | Cc1noc(C)c1S(=O)(=O)Nc1cccc2c1O[C@H](CN(C)S(=O)(=O)c1ccc(F)cc1)[C@H](C)CN([C@H](C)CO)C2=O | inactive: 1.01
16 | O=C(C[C@H]1C=C[C@H](NC(=O)c2ccc3c(c2)OCO3)[C@H](CO)O1)NCc1ccc(Oc2ccccc2)cc1 | inactive: 0.996
17 | Cc1ccc2[nH]c(C)cc2c1 | inactive: 0.972
18 | O=C(O)Cn1cnc(C2CC2)cc1=O | inactive: 0.91
19 | CCS(=O)(=O)N1CC[C@]2(CC1)CN(Cc1ccc3c(c1)OCO3)[C@@H](CO)c1[nH]c3cc(ccc3c12)OC | inactive: 0.995
20 | Cc1nn(C)c(C)c1Nc1nnc(N)[nH]1 | inactive: 1
21 | C[C@@H]1CN([C@@H](C)CO)C(=O)c2cc(NC(=O)Nc3ccc(C(F)(F)F)cc3)ccc2O[C@H]1CN(C)C(=O)Nc1ccc2c(c1)OCO2 | inactive: 0.999

Row | SMILES | relative growth
22 | Cc1ccc(S(=O)(=O)Nc2ccc3c(c2)C(=O)N([C@@H](C)CO)C[C@@H](C)[C@@H](CN(C)Cc2ccc4c(c2)OCO4)OCCCC[C@@H](C)O3)cc1 | inactive: 0.99
23 | CCN(CC)C(=O)N1CCN(CCC#N)CC1 | inactive: 1.01
24 | CC1(N)CCN(c2cccnc2NC(=O)c2nc(-c3ncccc3C(F)(F)F)cnc2N)CC1 | inactive: 1.02
25 | C[C@@H]1CCCCO[C@H](CN(C)S(=O)(=O)c2ccccc2)[C@H](C)CN([C@@H](C)CO)C(=O)c2cc(NC(=O)NC3CCCCC3)ccc2O1 | inactive: 1.01
26 | C[C@H]1CN([C@@H](C)CO)C(=O)c2cc(NC(=O)Cc3cn(C)c4ccccc34)ccc2O[C@H]1CN(C)Cc1ccc(C(=O)Nc2ccccc2N)cc1 | inactive: 0.942
27 | C[C@H]1CN([C@@H](C)CO)C(=O)c2cc(NC(=O)Nc3ccc(F)cc3)ccc2O[C@@H]1CN(C)Cc1ccc(C(F)(F)F)cc1 | inactive: 0.943
28 | O=C(C[C@H]1C[C@H]2c3cc(NC(=O)NC4CCCC4)ccc3O[C@H]2[C@H](CO)O1)NCc1ccc(Oc2ccccc2)cc1 | inactive: 1.04
29 | C[C@@H]1CN([C@H](C)CO)S(=O)(=O)c2ccc(-c3cncnc3)cc2O[C@H]1CN(C)C(=O)c1cccc(F)c1 | inactive: 1.01
30 | Cc1ccc(S(=O)(=O)Nc2ccc3c(c2)C(=O)N([C@@H](C)CO)C[C@@H](C)[C@@H](CN(C)Cc2ccc(Oc4ccccc4)cc2)O3)cc1 | inactive: 0.994
31 | NC(Cc1cc(I)c(Oc2cc(I)c(O)c(I)c2)c(I)c1)C(=O)[O-].[Na+] (configuration not stated) | inactive: 0.994
32 | C[C@H]1CN([C@@H](C)CO)C(=O)c2cc(NC(=O)Nc3ccc(C(F)(F)F)cc3)ccc2O[C@@H]1CN(C)C(=O)Nc1ccc(C(F)(F)F)cc1 | inactive: 1.03
33 | CCCC#Cc1cnc2c(c1)C(=O)N([C@H](C)CO)C[C@H](C)[C@@H](CN(C)S(=O)(=O)c1cccc(OC)c1)O2 | inactive: 1.02
34 | Cc1nccn1CCc1nc(N)nc(N)n1 | inactive: 0.966
35 | CN(Cc1ccc(/C=C/C(=O)Nc2ccc(-c3ccccc3)cc2N)cc1)CC12CC3CC(CC(C3)C1)C2 | inactive: 1.03
36 | C[C@H]1CN([C@@H](C)CO)C(=O)c2cc(NC(=O)Nc3ccc(C(F)(F)F)cc3)ccc2O[C@@H]1CN(C)CC1CCCCC1 | inactive: 0.937
37 | COc1ccc2c3c(n(c2c1)C)[C@H](CO)N(Cc1cc(cc(c1)OC)OC)C[C@]13CN(C1)C(=O)NC(C)C | inactive: 0.999
38 | COc1ccc(CN(C)C[C@H]2OCCCC[C@H](C)Oc3ccc(NS(=O)(=O)c4ccc(C)cc4)cc3C(=O)N([C@H](C)CO)C[C@@H]2C)cc1 | inactive: 1
39 | C[C@@H]1CN([C@@H](C)CO)C(=O)Cc2cc(NS(=O)(=O)c3ccc(F)cc3)ccc2O[C@H]1CN(C)Cc1ccc(Oc2ccccc2)cc1 | inactive: 0.96
40 | C[C@@H]1CCCCO[C@H](CN(C)C(=O)Nc2ccccc2)[C@H](C)CN([C@@H](C)CO)C(=O)c2cc(NS(=O)(=O)c3cccs3)ccc2O1 | inactive: 1.02
41 | Cc1noc(C)c1NC(=O)Nc1ccc2c(c1)C(=O)N([C@@H](C)CO)C[C@H](C)[C@@H](CN(C)S(=O)(=O)c1ccc(F)cc1)OCCCC[C@@H](C)O2 | inactive: 0.988
42 | C[C@@H](N)CCP(=O)(O)O | inactive: 1.03

Row | SMILES | relative growth
43 | CCCN(C)C[C@H]1OCCCC[C@@H](C)Oc2ccc(NS(=O)(=O)c3ccc(Cl)cc3)cc2C(=O)N([C@H](C)CO)C[C@@H]1C | inactive: 1
44 | C[C@H]1CN([C@@H](C)CO)C(=O)c2cc(NC(=O)Cn3cnnn3)ccc2O[C@H]1CN(C)CC1CCCCC1 | inactive: 1.02
45 | CCCN(C)C[C@H]1OCCCC[C@H](C)Oc2ccc(NS(=O)(=O)c3ccc(Cl)cc3)cc2C(=O)N([C@H](C)CO)C[C@H]1C | inactive: 0.968
46 | CCCCCN(CCCCC)C(=O)C(CCC(=O)[O-])NC(=O)c1ccc(Cl)c(Cl)c1.[Na+] (configuration not stated) | inactive: 1.06
47 | C[C@H](CO)N1C[C@H](C)[C@@H](CN(C)Cc2ccc(Cl)c(Cl)c2)Oc2c(NC(=O)Nc3cccc4ccccc34)cccc2C1=O | inactive: 1.02
48 | C[C@@H]1CCCCO[C@H](CN(C)Cc2ccc(C(=O)O)cc2)[C@@H](C)CN([C@@H](C)CO)C(=O)c2cc(NC(=O)Cc3ccccc3)ccc2O1 | inactive: 1.04
49 | Cn1cc(C(=O)NCc2cn3c(n2)CNCC3)cn1 | inactive: 0.979
50 | COc1ccc2c(c1)/C(=N\O)C(=O)N2 | inactive: 1.02
51 | Cc1noc(C)c1NC(=O)N(C)C[C@@H]1Oc2ccc(NC(=O)NC(C)C)cc2C(=O)N([C@@H](C)CO)C[C@H]1C | inactive: 0.981
52 | C[C@@H]1CCCCO[C@@H](CN(C)C(=O)c2ccccc2)[C@@H](C)CN([C@H](C)CO)C(=O)c2cc(NC(=O)CCCCCC(=O)Nc3ccccc3N)ccc2O1 | inactive: 0.967
53 | C[C@@H]1CN([C@@H](C)CO)C(=O)c2cc(NC(=O)Nc3cccc4ccccc34)ccc2O[C@@H](C)CCCCO[C@@H]1CN(C)S(=O)(=O)c1cn(C)cn1 | inactive: 1.02
54 | COCC#Cc1cnc2c(c1)C(=O)N([C@H](C)CO)C[C@@H](C)[C@H](CN(C)C(=O)c1ccc3c(c1)OCO3)O2 | inactive: 1.01
55 | COC(=O)CSc1cc(C)nc(N)n1 | inactive: 0.993
56 | COCC(=O)N(C)C[C@H]1Oc2cc(C#CCN(C)C)ccc2S(=O)(=O)N([C@H](C)CO)C[C@@H]1C | inactive: 0.994
57 | C[C@@H]1CCCCO[C@H](CN(C)C(=O)Nc2ccc3c(c2)OCO3)[C@@H](C)CN([C@H](C)CO)C(=O)c2cc(NS(=O)(=O)c3ccccc3)ccc2O1 | inactive: 1.02
58 | O=C(C[C@H]1CC[C@@H]2[C@H](COC[C@H](O)CN2S(=O)(=O)c2ccc(F)cc2)O1)NCc1ccc(Cl)c(Cl)c1 | inactive: 0.977
59 | C=CCC[C@@H](Cc1ccc(F)cc1)C(=O)OC[C@H]1CCCN1C(=O)[C@@H](CC=C)CC(=O)N(CCO)Cc1ccccc1 | inactive: 1.01
60 | C[C@H]1CCCCO[C@@H](CN(C)S(=O)(=O)c2cn(C)cn2)[C@@H](C)CN([C@@H](C)CO)C(=O)c2cc(NS(=O)(=O)c3cccs3)ccc2O1 | inactive: 0.999
61 | C[C@@H]1CN([C@@H](C)CO)C(=O)c2cc(NS(=O)(=O)c3cn(C)cn3)ccc2O[C@H]1CN(C)S(=O)(=O)c1ccc(Cl)cc1 | inactive: 0.984
62 | C[C@H](CO)N1C[C@H](C)[C@@H](CN(C)Cc2ccc(C(=O)O)cc2)Oc2c(NS(C)(=O)=O)cccc2C1=O | inactive: 0.998
